Data as given in the supplement of paper PMC12217912.
The other results are listed elsewhere or left out. The full chains were built here from the parent and the listed change. Inactive controls read about 0.05.

B1: TEV protease; numbered along this chain (parent)
chain: MGESLFKGPRDYNPISSSICHLTNESDGHTTSLYGIGFGPFIITNKHLFRRNNGTLVVQSLHGVFKVKDTTTLQQHLVDGRDMIIIRMPKDFPPFPQKLKFREPQREERICLVTTNFQTKSMSSMVSDTSCTFPSGDGIFWKHWIQTKDGQCGSPLVSTRDGFIVGIHSASNFTNTNNYFTSVPKNFMELLTNQEAQQWVSGWRLNADSVLWGGHKVFMVKPEEPFQPVKEATQL

Variants of: B1
Test: raw area under fraction-flipped curve 0-4 h after induction (AUC4h, not background-subtracted), DNA-recorder readout of cleavage of the substrate (dimensionless); higher = more cleavage of the substrate by the protease variant
Details: temperature: 34 °C; time window: 0-4 h after rhamnose induction
Method: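 In vivo DNA recorder in E. coli TOP10(DE3) ΔrhaA at 34 °C. Each TEVp single-site mutant (parent TEVp 0) is paired with a single-site variant of the 7-mer TEVs (canonical ENLYFQ|S). The substrate sits between flexible linkers in a Bxb1-sfGFP-TEVs-SsrA fusion, so cleavage stabilises Bxb1 and speeds flipping of a recombination array, read by NGS. The value is the raw area under the fraction-flipped curve over 0-4 h after rhamnose induction (AUC4h), with ≥20 reads per time point. It is not background-subtracted; inactive controls average about 0.047.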
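Further: Bxb1 expression induced with 0.2% (w/v) L-rhamnose at OD600 near 0.5, cultures sampled hourly, flipped fraction per protease–substrate barcode pair counted by paired-end Illumina sequencing.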

Row | Variant | area with substrate ANLYFQS | area with substrate DNLYFQS | area with substrate FNLYFQS | area with substrate GNLYFQS | area with substrate HNLYFQS | area with substrate INLYFQS | area with substrate KNLYFQS | area with substrate LNLYFQS | area with substrate MNLYFQS | area with substrate NNLYFQS | area with substrate PNLYFQS | area with substrate QNLYFQS | area with substrate TNLYFQS | area with substrate VNLYFQS | area with substrate WNLYFQS | area with substrate YNLYFQS | area with substrate RNLYFQS | area with substrate CNLYFQS | area with substrate SNLYFQS
1 | MGESLFKGPRDYNPISSSICHLTNESDGHTTSLYGIGFGPFIITNKHLFRRNNGTLVVQSLHGVFKVKDTTTLQQHLVDGRDMIIIRMPKDFPPFPQKLKFREPQREERICLVTTNFQTKSMSSMVSDTSCTFPSGDGIFWKHWIQTKDGQCGSPLVSTRDGFIVGIHSASNFTNTNNYFTSVPKNFMELLTNQEIQQWVSGWRLNADSVLWGGHKVFMVKPEEPFQPVKEATQL [A196I] | 0.105 | 0.0954 | 0.0707 | 0.0668 | 0.0634 | 0.0735 | 0.0579 | 0.0735 | 0.0677 | 0.0719 | 0.0903 | 0.067 | 0.0653 | 0.0724 | 0.0569 | 0.0642 |  |  | 
2 | MGESLFKGPRDYNPISSSICHLTNESDGHTTSLYGIGFGPFIITNKHLFRRNNGTLVVQSLHGVFKVKDTTTLQQHLVDGRDMIIIRMPKDFPPFPQKLKFREPQREERICLVTTNFQTKSMSSMVSDTSCTFPSGDGIFWKHWIQTKDGQCGSPLVSTRDGFIVGIHSASNFTMTNNYFTSVPKNFMELLTNQEAQQWVSGWRLNADSVLWGGHKVFMVKPEEPFQPVKEATQL [N175M] | 0.0575 | 0.0851 | 0.0643 |  | 0.0583 |  |  |  |  | 0.0645 |  |  |  |  | 0.0695 |  | 0.0768 |  | 
3 | MGESLFKGPRDYNPISSSICHLTNESDGHTTSLYGIGFGPFIITNKHLFRRNNGTLVVQSLHGVFKVKDTTTLQQHLVDGRDMIIIRMPLDFPPFPQKLKFREPQREERICLVTTNFQTKSMSSMVSDTSCTFPSGDGIFWKHWIQTKDGQCGSPLVSTRDGFIVGIHSASNFTNTNNYFTSVPKNFMELLTNQEAQQWVSGWRLNADSVLWGGHKVFMVKPEEPFQPVKEATQL [K90L] | 0.0629 |  | 0.0677 |  | 0.0572 |  | 0.0655 | 0.0723 | 0.0702 |  | 0.0772 |  | 0.0752 | 0.0568 | 0.0616 |  |  | 0.088 | 0.0632
4 | MGESLFKGPRDYNPISSSICHLTNESDGHTTSLYGIGFGPFIITNKHLFRRNNGTLVVQSLHGVFKVKDTTTLQQHLVDGRDMIIIRMPKDFPPFPQKLKFREPQREERICLVTTNFQTKSMSSMVSDTSCTQPSGDGIFWKHWIQTKDGQCGSPLVSTRDGFIVGIHSASNFTNTNNYFTSVPKNFMELLTNQEAQQWVSGWRLNADSVLWGGHKVFMVKPEEPFQPVKEATQL [F133Q] | 0.0698 |  |  |  |  | 0.0741 | 0.0682 |  |  |  | 0.0812 |  | 0.0664 |  |  |  |  | 0.0708 | 
5 | MGESLFKGPRDYNPISSSICHLTNESDGHTTSLYGIGFGPFIITNKHLFRRNNGTLVVQSLHGVFKVKDTTTLQQHLVDGLDMIIIRMPKDFPPFPQKLKFREPQREERICLVTTNFQTKSMSSMVSDTSCTFPSGDGIFWKHWIQTKDGQCGSPLVSTRDGFIVGIHSASNFTNTNNYFTSVPKNFMELLTNQEAQQWVSGWRLNADSVLWGGHKVFMVKPEEPFQPVKEATQL [R81L] | 0.0571 |  | 0.0648 |  | 0.053 | 0.0476 |  |  |  | 0.062 | 0.053 |  |  |  | 0.0442 | 0.056 | 0.0627 | 0.0486 | 0.0574
